Results as given in the supplement of paper PMC11417369.
The list shows a part of the results.

System: PF3D7_0420300 AP2 domain 1 (GST-tagged)
Experiment: gcPBM binding intensity (ln(normalized median fluorescence intensity)); higher = stronger DNA binding
How it was run: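 Alexa488 anti-GST antibody, scanned at 488 nm, detected GST-tagged P. falciparum DNA-binding domains that had been expressed in E. coli and incubated for 1 h on an Agilent 4 × 180k array. The array carried primer-extended double-stranded 36-bp intergenic genomic probes and negative controls. Binding intensity is the highest Masliner-normalised natural-log median intensity across replicate spots of either orientation of each probe.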

Going from “AAAGCTTACATATACACACATACATAAATTCATAAA [CACACA_site2469]” to “TTTTTTTATTATACTAGTACATATATATACAGCACA [XGTACX_site3464]”, the “gcPBM binding intensity (ln)” value falls from 9.59 to 9.24.

First: AAAAAAAAAAAAGGAACACACAAGTAACAATAAATT [CACACA_site2481]
Second: TTTTCCTTTACATAATGTACACAAAAAAAAAAAAAA [XGTACX_site716]
The “gcPBM binding intensity (ln)” value of the first is higher: 9.98 for the first, 8.81 for the second.

First: GTTACTGCATACATAACACACATATTCAAAACCCAT [CACACA_site5856]
Second: AATACAGACAGACACACACACAAAATAAAATACAAA [CACACA_site245]
The “gcPBM binding intensity (ln)” value of the first is lower: 9.62 for the first, 10.1 for the second.

Compared with “TCTTTTTTTTGAATTTGTACATAAGACAATAAAAAA [XGTACX_site4682]”, “CATCATAGAGTGGAGTGTACAAATATGTCAACATAT [XGTACX_site2264]” is higher in “gcPBM binding intensity (ln)” value: 8.69 for the first, 9.23 for the second.

First: GTCTATAACTATTGCGCACACTTTAAAAAAAAAGAA [CACACA_site1003]
Second: TATATATATATATAATGTACATAATAATAATACATC [XGTACX_site5587]
The “gcPBM binding intensity (ln)” value of the first is lower: 9.27 for the first, 9.44 for the second.

First: TAGAAGCATTGACACACACACATACATACACATACA [CACACA_site6802]
Second: CTAGACTTTATTAATTGTACATATGTGTATTTTATA [XGTACX_site480]
The “gcPBM binding intensity (ln)” value of the first is higher: 10.1 for the first, 9.26 for the second.

Going from “ATATTAAGGTTTATATTTTAACTTATTATTTTATTC [CACACA_negctrl_site795]” to “CATATCCTTACGAACTGTACAATATTAAGAATAAAA [XGTACX_site1651]”, the “gcPBM binding intensity (ln)” value falls from 9.3 to 9.14.

Compared with “ATATATTCAATTCATACACACACAATTTAAGAATGA [CACACA_site9289]”, “GTAAAAAGATAATGAAGTACATTTTTTCATTTTTAT [XGTACX_site5579]” is lower in “gcPBM binding intensity (ln)” value: 9.79 for the first, 9.1 for the second.

Compared with “AAAAAAAAAAAACACACACACACACCCATATACATA [CACACA_site2664]”, “ATTTATTTTTTTATCACACATTTGTGAAATGTGCAT [CACACA_site5869]” is lower in “gcPBM binding intensity (ln)” value: 10.3 for the first, 9.29 for the second.

Compared with “ATAAAAAAATCAGACACACACACGTAAACCCATACA [CACACA_site2773]”, “ACATATTTATATATGTGTACATAAATATTCTTTTAA [XGTACX_site8238]” is lower in “gcPBM binding intensity (ln)” value: 9.91 for the first, 8.98 for the second.

First: ATATATATATTTATAGTGCATTTATATTAAAATATC [GTGCAC_site9818]
Second: TCAAATAGAAAATAAAGTACTTAATTTTTAGGAACA [XGTACX_site1446]
The “gcPBM binding intensity (ln)” value of the first is higher: 9.2 for the first, 9.08 for the second.

First: TTGAATATTTAAAAACGTACATAAAATTATTTGATT [XGTACX_site5422]
Second: ATATTTATATTTTTTTGTACATATATAATTTTATAA [XGTACX_site4151]
The “gcPBM binding intensity (ln)” value of the first is lower: 9.01 for the first, 9.22 for the second.

First: ATATATATTTATATATGTACATATTAATATATATAT [XGTACX_site1144]
Second: TTATAGTATTTATAATGTACAAATATATTTTATTTT [XGTACX_site5015]
The “gcPBM binding intensity (ln)” value of the first is higher: 9.12 for the first, 9.09 for the second.

First: CAATGTTAATATAATACACACAATATGTATTTGTCT [CACACA_site1162]
Second: ATCCATCTTTTATATAGTACTTTATAATATATATAT [XGTACX_site8064]
The “gcPBM binding intensity (ln)” value of the first is lower: 9.49 for the first, 9.53 for the second.

First: TTGTTAATATATATATGTACTTATTTATTTATTTAT [XGTACX_site2274]
Second: TTTGAATTTTTTAACACACACATGTCTGGATATATA [CACACA_site1645]
The “gcPBM binding intensity (ln)” value of the first is lower: 9.37 for the first, 9.78 for the second.

Compared with “TTTTCCTTAACACACGTTTATATAAAAAATTAAAAT [XGTACX_negctrl_site115]”, “GAAAAAAAAAAAAAAAGTACATGTCATAAATTGTAT [XGTACX_site1461]” is higher in “gcPBM binding intensity (ln)” value: 8.98 for the first, 9.2 for the second.

Going from “GAGCTTTGGATGAAAGCATGCGATGAATGGATAAAA [TGCATGCA_site786]” to “AAATTAAAATATATATGTACATATATATATATATAT [XGTACX_site7844]”, the “gcPBM binding intensity (ln)” value falls from 8.95 to 8.94.

Compared with “ATAAAAATAAATAAATGTACATATATATATATATAT [XGTACX_site1277]”, “TAAATAGGAAAACCTATACACACTTTAAAAAAAATA [CACACA_site1621]” is higher in “gcPBM binding intensity (ln)” value: 9.13 for the first, 9.25 for the second.

Compared with “TAAATTAAAAAAAAAAACAAAAAAAAAGCAACAAAA [CACACA_negctrl_site1318]”, “AACACAAATAAGTATTTGGATTATATTACATTTATA [CACACA_negctrl_site465]” is lower in “gcPBM binding intensity (ln)” value: 9.52 for the first, 9.18 for the second.

Compared with CTGTAAAATGTGATGGTGCATATTAATTTAGTTGTA, “ATTTATTTCAATAAACTTCTTTTCTTTAACAATTAC [CACACA_negctrl_site1222]” is lower in “gcPBM binding intensity (ln)” value: 9.41 for the first, 9.08 for the second.

Compared with “TATAAAAATGTGTATGTACACACTTTATTTTTAATA [CACACA_site2532]”, “AAATATAAAAATAGCACACATATATACATATATATA [CACACA_site56]” is higher in “gcPBM binding intensity (ln)” value: 9.24 for the first, 9.52 for the second.

Compared with “TGTCCAATTTTTTATCGTACATAATATATAAATAAA [XGTACX_site1705]”, “AGTATTTCCATATGTACATGCAAAAGGAAAGATATA [TGCATGCA_site850]” is lower in “gcPBM binding intensity (ln)” value: 9.16 for the first, 9.15 for the second.

First: TATTTTTCCCTATGCACACACACCGTATATATAATA [CACACA_site4758]
Second: AGAAACGTAAGTTATACACACATGTCAAAAGAAAAA [CACACA_site312]
The “gcPBM binding intensity (ln)” value of the first is higher: 10 for the first, 9.51 for the second.

Going from “AAAAAAAAAAGACACACACACAAATACAAATACATA [CACACA_site6334]” to “TTTTAAACAAAAAATTGTACAATTAGTGTATAATCC [XGTACX_site778]”, the “gcPBM binding intensity (ln)” value falls from 10 to 9.19.

First: AAAGGAAATTAAAATTGATTACATATATAAAAAAAC [XGTACX_negctrl_site196]
Second: AATTTAATATAATGCACACATAAAAAAAAAAAAAAA [CACACA_site123]
The “gcPBM binding intensity (ln)” value of the first is higher: 9.4 for the first, 9.21 for the second.

Going from “CCAAAGAAATATAATACACACAAGAATATATTGGAT [CACACA_site6018]” to “AATGAAAAATGTATCGTTAAAGGGTATCTTAAGGAT [XGTACX_negctrl_site222]”, the “gcPBM binding intensity (ln)” value falls from 9.75 to 9.36.

First: AAGTATTACAACCACACACACACCTATATATTATAT [CACACA_site4158]
Second: ACTTGTTTTCAATGTAAAATACAATTTTCATTTATT [CACACA_negctrl_site435]
The “gcPBM binding intensity (ln)” value of the first is higher: 10.1 for the first, 9.18 for the second.

Going from “ATTTAAGGGGTGTATGCACACGACTATTCCGTATGA [CACACA_site4738]” to “AATATTTTAAGGCACACACACAAAAAAAAAAAAAAA [CACACA_site2890]”, the “gcPBM binding intensity (ln)” value rises from 9.19 to 9.55.

First: TAATTTAGTATCTTTACATGCGGGCATTATGTCATA [TGCATGCA_site167]
Second: TTTATTAATAGACACACACACACACGCAAAATAAAA [CACACA_site6255]
The “gcPBM binding intensity (ln)” value of the first is lower: 9.08 for the first, 10.2 for the second.

Compared with “ATAGGCACTTTTTGCACACGTATGAATAACAAAATA [CACACA_site5069]”, “TGAAAATTTTAATGAGGAAATAAAATAAATATAATA [GTGCAC_negctrl_site159]” is lower in “gcPBM binding intensity (ln)” value: 9.25 for the first, 9.14 for the second.

Going from “CCAAAGGGGGTATACTGTACATATAGTGGTTATATA [XGTACX_site1515]” to “CTTTATTATAAGATTACACACATGTGTTATAATTTA [CACACA_site3169]”, the “gcPBM binding intensity (ln)” value falls from 9.66 to 9.39.

Compared with TTGACCTTAAGAAGGTTGCACTAATCATTCAAAGTT, “CCATTTATTATTTGGGGTACATTTAATTAATATTTT [XGTACX_site5940]” is higher in “gcPBM binding intensity (ln)” value: 8.96 for the first, 9.45 for the second.

First: ATTAGTAAGAATCATTGTACATTATAATATGTGGTA [XGTACX_site1341]
Second: TTTTTAAAAAAGTAAAGTACAAAAAAAAGGAATATC [XGTACX_site588]
The “gcPBM binding intensity (ln)” value of the first is lower: 9.27 for the first, 9.52 for the second.

First: TGCTTCCTTAGGAATGTACACACATATATAATATGT [CACACA_site8048]
Second: AAAGAAATACAATGATGTACATTTAAAAAAAATTAA [XGTACX_site4324]
The “gcPBM binding intensity (ln)” value of the first is higher: 9.41 for the first, 9.21 for the second.

Compared with “ACAAGAAAATATATTTGTACATATATAATTTTATTT [XGTACX_site548]”, “TGTAAAACTGAAAAGGGTACATATAAATATATATAT [XGTACX_site69]” is higher in “gcPBM binding intensity (ln)” value: 9.2 for the first, 9.28 for the second.

First: ATTTATTTTTATATAACACACAAAGTATAATATAAC [CACACA_site3582]
Second: ATATATTTATATTTATGTACATATCTTTATTTACGT [XGTACX_site6800]
The “gcPBM binding intensity (ln)” value of the first is higher: 9.44 for the first, 9.42 for the second.

Going from “ATATATATATCGATCTGTACATATATTTATAGACAT [XGTACX_site4236]” to “ACGTTGAAGAAATACACATGCATATTCTATATATAT [TGCATGCA_site76]”, the “gcPBM binding intensity (ln)” value rises from 9.25 to 9.32.

Going from “TATATTTTTTAAAAAGCATGCAAAAAATAATGATCA [TGCATGCA_site48]” to “GTATAATATGAACACACACACACACGCAAAAAAAAA [CACACA_site7036]”, the “gcPBM binding intensity (ln)” value rises from 8.88 to 10.1.

First: CTCTTATGCTAGGAAGTGCAATAGTATGGGTACCAC
Second: TCATTTTATTTTTTCACACACACATATATATATATA [CACACA_site3333]
The “gcPBM binding intensity (ln)” value of the first is lower: 9.07 for the first, 9.96 for the second.

Compared with “TAATATATATAAACATGTACAAATCAAAAACAAAAG [XGTACX_site4076]”, “TTAACTCAAGAGTGTACACATATATATATATATATA [CACACA_site4334]” is lower in “gcPBM binding intensity (ln)” value: 9.7 for the first, 9.14 for the second.

Compared with “AATACCCATTTTAGTACACACTTAAAAAATTATTTT [CACACA_site5611]”, “ATTCTTTTTTTTTGGAAATGTATTTTTATGTTTTGT [TGCATGCA_negctrl_site426]” is higher in “gcPBM binding intensity (ln)” value: 9.3 for the first, 9.45 for the second.

Going from “ATTTTAGATGAAAAAGCACACAACATATATATATAT [CACACA_site2295]” to “TAACTAAGGAATAATACACACAGAAATATAGATTTA [CACACA_site6293]”, the “gcPBM binding intensity (ln)” value rises from 9.61 to 9.72.

Going from TCTATTTTCTTATGAATGCACTAATTTATAAAACGT to “CAACAAAAATTATTTACACACAAAAGGCAAGGAAAT [CACACA_site1971]”, the “gcPBM binding intensity (ln)” value rises from 9.04 to 10.1.

First: TTTATAAACAAATGAACACACAAACATATATATATA [CACACA_site5713]
Second: CTATTATAATATTTTACACACCATGTAAGATATATA [CACACA_site7492]
The “gcPBM binding intensity (ln)” value of the first is higher: 9.67 for the first, 9.3 for the second.

For “TTTATTTTATCATTTGCACACGCACCCAGACATAAA [CACACA_site4347]”, the “gcPBM binding intensity (ln)” value was 9.39.
